Screen size: about 52,000 compounds; about 1,700 (3.3%) were called active. Rule as the data show it: active = survival mostly below about 52% (no sharp cut-off); inactive = mostly above about 56%. Some of the results follow.
These compounds were tested on Wild type (assay: S. aureus survival, RN4220 and DeltatarO strains – OD600, teichoic acid synthesis inhibitors, primary screen (AID 463173)). Details: S. aureus RN4220 wild type/DeltatarO growth, OD600, 18 h, hits give low values, screened at 18.75 µg/mL (by protocol).

Row | Structure (SMILES) | survival
1 | CN1C(=O)Cc2cc(S(=O)(=O)NCc3ccccc3Cl)ccc21 | inactive: 97%
2 | O=C(c1ccc(Br)cc1)N(Cc1ccco1)c1ccccn1 | inactive: 82%
3 | Cc1ccc2oc(C(=O)N3CCC(c4nc5ccccc5s4)CC3)c(C)c2c1 | inactive: 70%
4 | COc1ccc(N(CC(=O)N2CCCCC2)S(=O)(=O)c2ccc(OC)c(OC)c2)cc1 | inactive: 71%
5 | CCCc1ccc(OCc2ccc(C(=O)Nc3ccccc3C(=O)OC)o2)cc1 | active: 3%
6 | CCc1ccc(CNC(=O)c2cccc(-n3c(C)nc4cccnc43)c2)cc1 | inactive: 65%
7 | CCc1ccc(NC(=O)Cn2c(=O)n(-c3cccc(OC)c3)c(=O)c3c(C)c(C(=O)N(C)C)sc32)cc1 | inactive: 88%
8 | COc1ccc(-c2cnnn2-c2ccc(NC(=O)c3ccccc3OC)cc2)cc1 | inactive: 153%
9 | Cc1c(C(=O)NCc2cccc(Cl)c2)sc2nc3n(c(=O)c12)CCCC3 | inactive: 74%
10 | COc1ccc(CCNC(=O)CN2C(=O)COc3ccc(S(=O)(=O)N4CCCC4)cc32)c(OC)c1 | inactive: 79%
11 | Cc1ccc(NC(=O)CC2Oc3ccccc3NC2=O)cc1C (stereo unspecified) | inactive: 127%
12 | COc1ccc(C2=C(N3CCN(c4cccc(C)c4C)CC3)c3ccccc3C2=O)cc1 | inactive: 78%
13 | CCN(CC)CCCNC(=O)c1ccc(Cn2c(SCc3ccccc3)nc3cccnc32)cc1 | inactive: 65%
14 | Cn1c(=O)n(Cc2c(F)cccc2Cl)c(=O)c2c1nc1n2CCN1c1ccc(F)cc1 | inactive: 112%
15 | Cc1c(C(=O)NCc2cccc(Br)c2)oc2ccc3c(c12)C(=O)CC(C)(C)O3 | inactive: 67%
16 | COc1c(C)cccc1C(=O)Nc1ccc(-c2nc3ccccc3s2)c(Cl)c1 | inactive: 89%
17 | Nc1nn(-c2ccccc2)nc1C(=O)OCc1ccc(Cl)cc1 | inactive: 59%
18 | COc1ccc(-c2nc3sc(CCNC(=O)C(=O)Nc4cccc(NC(C)=O)c4)c(C)n3n2)cc1 | inactive: 99%
19 | CC1=C(C(=O)NCc2ccccc2F)C2(CCCCC2)OC1=O | inactive: 73%
20 | Cc1ccc(CCNC(=O)C2CCCN(c3nnc(C)c4c(C)n(-c5ccccc5)nc34)C2)cc1 (stereo unspecified) | inactive: 71%
21 | COCCNC(=O)c1nn(-c2ccc(C)cc2)c(=O)c2c1c1ccccc1n2C | inactive: 88%
22 | CCOc1ccc(-c2cc(C(=O)OC)on2)cc1 | inactive: 102%
23 | O=C(Nc1ccccc1Cl)N1CCC(CN2CCCC2)CC1 | inactive: 55%

Row | Structure (SMILES) | survival
24 | N#Cc1ccc(-c2ccc(F)cc2)n(CC(=O)N2CCC(C(N)=O)CC2)c1=O | inactive: 108%
25 | COc1cccc(-c2nc(CS(=O)(=O)CC(=O)NCc3cccc(Cl)c3)c(C)o2)c1 | inactive: 82%
26 | Cc1ccc(CSc2ncc(Cl)c(C(=O)Nc3nnc(C)s3)n2)cc1 | inactive: 52%
27 | N#CC(C#N)=Cc1cn(CC(=O)N2CCOCC2)c2ccccc12 | inactive: 110%
28 | CC1=C(c2ccc(F)cc2)S(=O)(=O)N=C1N1CCC(C(=O)NCCc2cccc(C)c2)CC1 | inactive: 87%
29 | COc1cc2ncc3c(-c4ccc(C)cc4)nn(-c4ccc(F)cc4F)c3c2cc1OC | inactive: 75%
30 | CN(C)CCCNc1cc(N2CCN(C3CCCCC3)CC2)c2noc3c2c1C(=O)c1ccccc1-3 | inactive: 72%
31 | COc1ccc(Cn2ccnc2SCC(=O)Nc2nc3ccccc3s2)cc1 | inactive: 91%
32 | COc1ccccc1CNc1ccccc1F | inactive: 113%
33 | O=C(NCc1ccc2c(c1)CCN2C(=O)c1ccccc1)Nc1cccc(C(F)(F)F)c1 | inactive: 124%
34 | Cc1ccccc1OCCSc1nc2ccc(NC(=O)c3cccc(F)c3)cc2s1 | inactive: 110%
35 | Cc1ccc(NC(=O)CN2C(=O)c3cccnc3Oc3ccc(Cl)cc32)cc1 | inactive: 138%
36 | Cc1ccn2c(Nc3ccc4c(c3)OCCO4)c(-c3ccc(C)o3)nc2c1 | inactive: 75%
37 | Cc1cc(Nc2ccccc2C)n2nc(Cc3ccc(Cl)cc3)nc2n1 | inactive: 81%
38 | Cc1c(C(=O)NCc2ccccc2Cl)sc2ncnc(N(C)C3CCCCC3)c12 | inactive: 88%
39 | Cc1ccccc1-c1nc(CN2CCC(C(=O)NCc3ccc(F)cc3)CC2)c(C)o1 | inactive: 90%
40 | CC(=O)c1ccc(NC(=O)c2ccc3c(c2)N(Cc2cccc(Cl)c2)C(=O)c2ccccc2S3=O)cc1 (stereo unspecified) | inactive: 93%
41 | CCOC(=O)c1c(C)n(-c2ccccc2)c2ccc(OC(=O)COc3ccc(Cl)cc3)cc12 | inactive: 78%
42 | COc1ccc(NC(=O)c2cc3c(s2)-c2c(C)cccc2OC3)cc1Cl | inactive: 87%
43 | CC(Sc1nnc2c(n1)[nH]c1ccccc12)C(=O)NC1CC1 (stereo unspecified) | inactive: 103%
44 | CCCN(CCC)c1ccc(C2N=C(N)Nc3nc4ccccc4n32)cc1 (stereo unspecified) | inactive: 64%
45 | CCNC(=O)C1CCN(S(=O)(=O)c2ccc3c(c2)CCCN3C(C)=O)CC1 | inactive: 73%
46 | CCOc1cc(C(=O)Nc2ccc(-c3cn4cccnc4n3)cc2)cc(OCC)c1OCC | inactive: 97%

Row | Structure (SMILES) | survival
47 | O=C(Nc1ccc(N2CCCCC2)cc1)c1ccc2c(c1)OCO2 | inactive: 112%
48 | O=C(NCc1ccccc1)c1ccc(NC(=O)N2CC3CCCN3c3ccccc32)cc1 (stereo unspecified) | inactive: 77%
49 | Cc1ccc(S(=O)(=O)NC(Cc2ccccc2)C(=O)NN)cc1 (stereo unspecified) | inactive: 115%
50 | Cn1c(=O)oc2cc(S(=O)(=O)CCC(=O)N3CCN(c4cccc(Cl)c4)CC3)ccc21 | inactive: 68%
51 | COc1ccc(Br)cc1CNC(=O)c1cnc2sc(N3CCC(C)CC3)nn2c1=O | inactive: 68%
52 | Cc1ccc(C)c(N2CCN(S(=O)(=O)c3cc(C(=O)Nc4ccc(Oc5ccccc5)cc4)ccc3F)CC2)c1 | inactive: 128%
53 | CC1CCc2c(sc(N)c2C(N)=O)C1 (stereo unspecified) | inactive: 96%
54 | Cc1ccc(S(=O)(=O)c2nnn3c2nc(NCc2ccc4c(c2)OCO4)c2sccc23)cc1C | inactive: 86%
55 | CCc1ccc(NC(=O)CN2C(=O)c3cccc4cccc2c34)cc1 | inactive: 103%
56 | Cc1ccc2c(c1)c1c(c(=O)n(-c3ccccc3)c(=O)n1CC(=O)NCC1CCCO1)n2C (stereo unspecified) | inactive: 72%
57 | COc1ccc(C2(CC(=O)O)CCOC(C)(C)C2)cc1 (stereo unspecified) | inactive: 100%
58 | Cc1nc2ccccn2c(=O)c1NC(=O)c1ccc(F)c(F)c1 | inactive: 80%
59 | COc1cc(Cl)c(NC(=O)c2cc3ccccn3n2)c(OC)c1 | inactive: 77%
60 | Cc1cccc(NC(=O)C2CCCN2S(=O)(=O)c2ccc3nc(-c4ccccc4)[nH]c3c2)c1 (stereo unspecified) | inactive: 42%
61 | O=c1n(Cc2ccccc2Cl)c2ccccc2c2nc(-c3ccccc3)nn12 | inactive: 86%
62 | Cc1nn2c(=O)cc(COC(=O)c3ccc(NC(=O)COc4ccc(C)c(C)c4)cc3)nc2s1 | inactive: 135%
63 | CCCn1cnc2scc(-c3ccccc3)c2c1=O | inactive: 99%
64 | Cc1ncc(CO)c2c1Oc1nc(-c3ccccc3Cl)nc(SCc3ccccc3F)c1C2 | inactive: 84%
65 | COCCCNC(=O)Cn1cnc2sc(C)c(S(=O)(=O)N3CCC(C)CC3)c2c1=O | inactive: 72%
66 | COC(=O)C(C)Sc1ccc2nnc(CCNS(=O)(=O)c3ccc(C)cc3)n2n1 (stereo unspecified) | inactive: 94%
67 | COc1ccc2oc(=O)c(C(=O)Nc3ccc(O)cc3)cc2c1 | inactive: 101%
68 | Cc1ccc(C)c(NC(=O)n2ncc3cc(Cl)ccc32)c1 | inactive: 83%
69 | CN(C(=O)Cn1nnc2ccccc2c1=O)C1CCCCC1 | inactive: 113%

Row | Structure (SMILES) | survival
70 | CCOc1ccc(C2CC(=O)Nc3nc(SCc4ccccc4C)[nH]c(=O)c32)cc1OC (stereo unspecified) | inactive: 113%
71 | Cc1ccc(CCNC(=O)c2ccc3nc(N4CCC(C)CC4)sc3c2)cc1 | inactive: 87%
72 | CC(C)NC(=O)c1ccc(Cn2c(SCC(N)=O)nc3ccccc3c2=O)cc1 | inactive: 74%
73 | COc1ccc(C2CC(=O)N3CN(C4CCCCC4)CSC3=C2C#N)c(OC)c1 (stereo unspecified) | inactive: 82%
74 | COc1ccc2nc(N(Cc3cccnc3)C(C)=O)sc2c1 | inactive: 68%
75 | O=C(NCc1cccnc1)c1nn(-c2ccc(Cl)cc2)nc1CO | inactive: 87%
76 | COc1cc(Cl)c(C)cc1Nc1nc2ccccc2c2nnc(C)n12 | inactive: 130%
77 | CCc1ccc(-n2c(=O)c3cccnc3n2CC(=O)NCc2ccccc2)cc1 | inactive: 138%
78 | COC(=O)c1cc2oc(C)cc2n1Cc1ccc(Br)cc1F | inactive: 48%
79 | CCC(Oc1ccccc1-c1nnc(-c2ccccc2)o1)C(=O)Nc1ccc(C(C)=O)cc1 (stereo unspecified) | inactive: 118%
80 | CC1=C(C)C/S(=N\S(=O)(=O)c2ccc(Cl)cc2)N(S(=O)(=O)c2ccc(Cl)cc2)C1 (stereo unspecified) | inactive: 114%
81 | COC(=O)c1ccc(NC(=O)CSc2ccc(-c3sc(-c4ccccc4)nc3C)nn2)cc1 | inactive: 61%
82 | COc1ccc(Nc2ncc3c(n2)CCN(Cc2ccccc2C)C3)c(OC)c1 | inactive: 90%
83 | N#Cc1cccc(C(c2nnnn2Cc2ccccc2)N2CCCC2)c1 (stereo unspecified) | inactive: 102%
84 | O=C(NC1CC(=O)N(c2ccc(F)cc2)C1)c1ccco1 (stereo unspecified) | inactive: 80%
85 | COc1ccccc1C1CC(=O)NC(C)=C1C(=O)OC1CCCCCC1 (stereo unspecified) | inactive: 84%
86 | CC(=O)Nc1nc(-c2cccs2)nc2c1c(=O)oc1ccccc12 | inactive: 99%
87 | O=C(O)C1CCN(C(=O)c2ccc(-c3ccccc3)cc2)CC1 | inactive: 116%
88 | COc1cccc(OC)c1C(=O)N1CCNCC1 | inactive: 97%
89 | COC(=O)c1c(C)oc2ccc(N(C(=O)c3ccncc3)S(=O)(=O)c3ccc(OC)cc3)cc12 | inactive: 84%
90 | O=C(Nc1cccc(C(F)(F)F)c1)c1ccc2c(c1)nnn2C1CCCC1 | inactive: 72%
91 | CCc1ccc(-n2c(=O)c3c4c(sc3n(Cc3ccccc3C#N)c2=O)CCC4)cc1 | inactive: 137%
